Source: PubChem BioAssay AID504832 (National Center for Advancing Translational Sciences (NCATS), 2011)
Out of some 310,000 compounds screened, about 18,000 (5.8%) were called active. This list was built around the results that the source calls inconclusive (neither active nor inactive); the mix of calls is not that of the screen. Calls come from the whole dose curve; as a rule, active = well fitted inhibition curve with a large enough effect; inconclusive = small, poorly fitted or top-dose-only effect, or another doubt; inactive = no such curve, though single readings can be large or run the other way. Potencies of inconclusive entries are left out as doubtful fits.

Test: Primary qHTS for delayed death inhibitors of the malarial parasite plastid, 48 hour incubation
Conditions: P. falciparum luciferase growth in erythrocytes; series mostly up to 28.7 µM; activity change, negative = inhibition: at the top concentration
How it was run: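 Cell-based growth assay: transgenic P. falciparum expressing firefly luciferase, cultured in red cells within RPMI 1640 containing 0.5% w/v Albumax, 24 mM bicarbonate and gentamycin. A drop in luciferase activity indicates inhibition.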
% is set by controls: 0 for no effect and ±100 for the full control effect; potency is the fitted concentration of half-maximal effect; tags give direction and shape of the fitted curve.

For `CCOc1ccc(NC(=S)NCc2ccc3[nH]c(C)cc3c2)cc1`, which Potency is on record?
The Potency was inconclusive [inhibitor, single point].

Which Potency does the source give for `CCOc1c2ccc(C(=O)NCc3cc(C(F)(F)F)cc(C(F)(F)F)c3)cc2nn1CCOC` here?
The Potency was inconclusive [inhibitor, single point].

For `CC(NC(=O)CN1CCOCC1)c1ccc(F)cc1` (configuration not stated), which “activity change, negative = inhibition” value is on record?
Its value is inactive: 28.3%.

With `Cc1ccc(P(=O)(O)c2ccc(C)cc2)cc1` as the molecule, how does the Potency read?
Its Potency is inconclusive [inhibitor, partial curve, poor fit].

Which Potency does the source give for `CC(NC(=O)C(=O)N1CCCCC1)C(c1cccs1)N1CCN(c2ccccc2)CC1` (configuration not stated) here?
The Potency was inconclusive [inhibitor, partial curve, poor fit].

With `CCOc1ccc2[nH]c(=O)c(CN(CCN3CCCC3)C(=S)Nc3ccccc3OCC)cc2c1` as the molecule, how does the Potency read?
The Potency was active: 6.57 µM.

For `Cc1cccc(NC(=O)CN2CCN(CC(=O)Nc3ccc(-c4ccccc4)cc3)CC2)c1C`, which Potency is on record?
The Potency was inconclusive [inhibitor, partial curve, poor fit].

With `Cc1ccc(Cn2c(=N)c(C(=O)NCc3ccco3)cc3c(=O)n4ccccc4nc32)cc1` as the molecule, how does the Potency read?
Its Potency is active: 4.15 µM.

For `CNC(=S)NNC(=O)COc1ccc(C)c(C)c1`, which “activity change, negative = inhibition” value is on record?
Its value is inactive: 29.6%.

Which “activity change, negative = inhibition” value does the source give for `CSc1nc(N2CCOCC2)cc(N2CCOCC2)n1` here?
Its value is inactive: 9.11%.

For `Cc1ccc(S(=O)(=O)c2nnn3c2nc(N2CCC(C(N)=O)CC2)c2ccccc23)cc1C`, which Potency is on record?
Its Potency is inconclusive [inhibitor, partial curve].

Which Potency does the source give for `CCn1nc(C)c(CN2CCCCC2C(=O)Nc2ccc(Oc3cccnc3)cc2)c1C` (configuration not stated) here?
Its Potency is inconclusive [inhibitor, single point].

With `O=C(c1ccc(NS(=O)(=O)c2ccc(F)cc2)cc1)N1CCC1` as the molecule, how does the “activity change, negative = inhibition” value read?
The value was inactive: 18.3%.

For `O=C1C2C3C=CC(CC3)C2C(=O)N1/N=C/c1c[nH]c2ccccc12` (configuration not stated), which “activity change, negative = inhibition” value is on record?
Its value is inactive: 169%.

Which “activity change, negative = inhibition” value does the source give for `O=C(COC(=O)/C=C/c1cccc(Cl)c1)NC(=O)NCc1ccccc1` here?
The value was inactive: -15.4%.

Which Potency does the source give for `COc1c2n(C)ccc3c-2n(c(=O)c1=O)c1ccccc31` here?
The Potency was inconclusive [inhibitor, partial curve].

For `CCOc1ccc(Cl)cc1CSc1n[nH]c(C)n1`, which Potency is on record?
Its Potency is inconclusive [inhibitor, partial curve].

For `Cc1ccc(NC(=O)c2nc[nH]c2C(=O)N[C@@H](CCCCNC(=O)OC(C)(C)C)C(=O)OC(C)(C)C)cc1`, which Potency is on record?
Its Potency is active: 13.1 µM.

For `O=C(c1cccc(S(=O)(=O)N2CCc3ccccc32)c1)N1CCCC(C(F)(F)F)C1` (configuration not stated), which Potency is on record?
Its Potency is inconclusive [inhibitor, partial curve, poor fit].

With `N#Cc1ccsc1NC(=O)CCN1CCN(C(c2ccccc2)c2ccccc2)CC1` as the molecule, how does the Potency read?
Its Potency is inconclusive [inhibitor, single point].

For `CC(NC(=O)NCc1cccnc1)(C(F)(F)F)C(F)(F)F`, which “activity change, negative = inhibition” value is on record?
Its value is inactive: -12.1%.

With `COc1ccc(C(=O)NCCc2ccccn2)cc1S(=O)(=O)Nc1ccc(Br)cc1` as the molecule, how does the Potency read?
Its Potency is inconclusive [inhibitor, single point].

For `C/C(=N\NS(=O)(=O)c1ccc(C)cc1)c1ccc(C)o1`, which “activity change, negative = inhibition” value is on record?
The value was inactive: 3.27%.

Which Potency does the source give for `O=C(CCc1nnc(Cc2c[nH]c3ccccc23)o1)NCC1CC12CCCCC2` (configuration not stated) here?
The Potency was inconclusive [inhibitor, partial curve].

For `O=S1(=O)N=C(Nc2ccc(N3CCOCC3)c(Cl)c2)c2ccccc21`, which “activity change, negative = inhibition” value is on record?
Its value is inactive: 59%.

With `CC1CCC2(CC1)NC(=O)N(CC(=O)NC(C)c1ccc(F)c(F)c1)C2=O` (configuration not stated) as the molecule, how does the Potency read?
Its Potency is inconclusive [inhibitor, single point].

With `Cc1ccc2c(c1)N(S(=O)(=O)c1cc(-c3cc(C)no3)ccc1C)CCO2` as the molecule, how does the Potency read?
The Potency was inconclusive [inhibitor, partial curve].

Which Potency does the source give for `Cc1ccc(-c2ncccc2OC(=O)C23CC4CC(CC(C4)C2)C3)cc1` here?
Its Potency is inconclusive [inhibitor, single point].

Which Potency does the source give for `CCN1C(=O)N/C(=C/c2cc(C)n(Cc3ccccc3)c2C)C1=O` here?
Its Potency is inconclusive [inhibitor, single point].

For `COc1ccccc1NS(=O)(=O)c1cc(NC(=S)NCCN2CCOCC2)ccc1N1CCOCC1`, which Potency is on record?
Its Potency is inconclusive [inhibitor, partial curve].

With `CCN(CC)C1=N/C(=C\c2ccc(OC)cc2)C(=O)N1c1ccccc1` as the molecule, how does the “activity change, negative = inhibition” value read?
Its value is inactive: 3.65%.

With `CC(C)n1c(C(O)c2ccccc2)nc2ccccc21` (configuration not stated) as the molecule, how does the “activity change, negative = inhibition” value read?
Its value is inactive: -25.1%.

With `Fc1ccc(CNc2ccc(N3CCN(Cc4ccccc4)CC3)cc2)cc1` as the molecule, how does the “activity change, negative = inhibition” value read?
The value was inactive: -22.1%.

Which “activity change, negative = inhibition” value does the source give for `Cc1cc(C)c(C#N)c(SCC(=O)c2cccs2)n1` here?
Its value is inactive: 72.8%.

Which “activity change, negative = inhibition” value does the source give for `CCOC(=O)C1CCCN(C(=O)c2cn(C)c(=O)c3cc(OC)c(OC)cc23)C1` (configuration not stated) here?
Its value is inactive: -6.83%.

Which Potency does the source give for `COC(=O)c1ccccc1NC(=S)N(Cc1ccc2c(c1)OCO2)Cc1cc2ccc(C)cc2[nH]c1=O` here?
The Potency was active: 9.28 µM.

With `O=C(Nc1ccc(O)c(-c2nc3ccccc3s2)c1)c1cc(=O)c2ccccc2o1` as the molecule, how does the Potency read?
Its Potency is inconclusive [inhibitor, single point].

With `COc1cc2c(c3oc(=O)cc(CC(=O)O)c13)CCC(C)(C)O2` as the molecule, how does the Potency read?
Its Potency is inconclusive [inhibitor, partial curve, poor fit].

Which Potency does the source give for `COc1cccc(/C=N/NC(=O)CCn2cnc3ccccc32)c1` here?
Its Potency is inconclusive [inhibitor, partial curve, poor fit].

For `O=C(c1cccc(N2C(=O)C3C4C=CC(C4)C3C2=O)c1)N1CCN(c2ccccc2Cl)CC1` (configuration not stated), which “activity change, negative = inhibition” value is on record?
The value was inactive: -0.921%.

With `Cc1nn(C)c(C)c1CN(C(=O)CCc1nnc(Cc2c[nH]c3ccccc23)o1)C(C)C` as the molecule, how does the Potency read?
The Potency was inconclusive [inhibitor, single point].

For `CSc1nc(-c2ccc(Cl)cc2)nn1C(=O)c1ccccc1`, which “activity change, negative = inhibition” value is on record?
Its value is inactive: 98.7%.

For `Cc1cccc(NC(=S)N/N=C(\c2ccccc2)C(C)C)c1`, which Potency is on record?
The Potency was inconclusive [inhibitor, single point].

With `COc1ccc(Cn2c(C3CCCCC3)nc3c(c(=O)c4ccccc4n3C)c2=O)cc1` as the molecule, how does the Potency read?
Its Potency is active: 3.29 µM.

With `CCn1c(SCC(=O)Nc2ccc(OC)cc2OC)nc2nc3c(cc2c1=O)COC(C)(C)C3` as the molecule, how does the Potency read?
The Potency was inconclusive [inhibitor, partial curve].

With `COc1ccc(CNC(=O)c2c(C)cc(=O)oc2C)cc1` as the molecule, how does the “activity change, negative = inhibition” value read?
The value was inactive: 13%.

For `Cn1c(=O)c2c(nc(SCCN3CCOCC3)n2Cc2ccccc2Cl)n(C)c1=O`, which Potency is on record?
The Potency was inconclusive [inhibitor, partial curve, poor fit].

Which “activity change, negative = inhibition” value does the source give for `COC(=O)c1cccc(NC(=O)c2ccc(OC)c(Cl)c2)c1` here?
Its value is inactive: 47.9%.

With `CCCNC(=O)c1cc(-c2ccc(OC)cc2)n(CCCOC)c1C` as the molecule, how does the Potency read?
The Potency was active: 2.08 µM.

For `COc1ccc(NC(=S)N(CCN2CCOCC2)Cc2ccccc2F)cc1`, which Potency is on record?
The Potency was inconclusive [inhibitor, partial curve, poor fit].

With `FC(F)(F)c1cccc(Cn2cnc(NC(=S)NCCc3ccccc3)n2)c1` as the molecule, how does the Potency read?
Its Potency is inconclusive [inhibitor, full curve].

For `COc1ccc(CCNC(=S)Nc2ccc(C(C)C)cc2)cc1`, which “activity change, negative = inhibition” value is on record?
Its value is inactive: 0%.

Which “activity change, negative = inhibition” value does the source give for `COc1ccc(CC(=O)Nc2cccc3ccccc23)cc1OC` here?
The value was inactive: -9.75%.

For `O=C(NCCCN1CCCC1)c1ccc2c(c1)N(Cc1ccccc1F)C(=O)c1ccccc1S2(=O)=O`, which Potency is on record?
The Potency was active: 10.4 µM.

For `COc1ccc(/C=N/NC(=O)CCSc2nc3ccccc3s2)cc1`, which “activity change, negative = inhibition” value is on record?
Its value is inactive: -1.44%.

With `CC1CCCN(S(=O)(=O)CCNC(=O)c2ccc3c(c2)OCO3)C1` (configuration not stated) as the molecule, how does the Potency read?
Its Potency is inconclusive [inhibitor, single point].

With `O=C(NCc1nnc(SCc2ccc(F)cc2)n1-c1ccc(F)cc1)C12CC3CC(CC(C3)C1)C2` as the molecule, how does the Potency read?
Its Potency is inconclusive [inhibitor, partial curve, poor fit].

For `O=C(c1ccc2ccccc2n1)N1CCN(c2ccccc2)CC1`, which “activity change, negative = inhibition” value is on record?
The value was inactive: 4.18%.

Which Potency does the source give for `COc1ccc2c(c1)[C@H]1[C@H](CO2)[C@H](c2ccccc2)[C@]2(C)C(=O)N(CC3CCCO3)CC(=O)N12` (some centres not stated) here?
The Potency was inconclusive [inhibitor, single point].

Which “activity change, negative = inhibition” value does the source give for `COCC1CCCN(C(=O)c2cc(COc3cccc4cccnc34)on2)C1` (configuration not stated) here?
The value was inactive: -18.9%.

Which “activity change, negative = inhibition” value does the source give for `N#CCCCCN1c2cccc3cccc(c23)S1(=O)=O` here?
The value was inactive: 3.26%.

For `Cc1cccc(-n2cc(CN3CCCN(C=O)CC3)c(-c3cccc(F)c3)n2)c1`, which Potency is on record?
Its Potency is inconclusive [inhibitor, single point].

Which Potency does the source give for `O=C(C1CC1)N1CCN(c2ccc(F)cc2)CC1` here?
The Potency was inconclusive [inhibitor, single point].

With `Cc1ccc(/C=C/C(=O)c2ccc([N+](=O)[O-])o2)cc1` as the molecule, how does the Potency read?
The Potency was inconclusive [inhibitor, single point].

For `O=C(NNC(=S)NCc1ccccc1)c1ccc(Br)o1`, which Potency is on record?
Its Potency is inconclusive [inhibitor, single point].

Which Potency does the source give for `COC(=O)[C@]1(Cc2ccccc2)N[C@H](c2ccc(-c3ccc4c(c3)OCO4)cc2)[C@@H]2C(=O)N(C)C(=O)[C@@H]21` here?
Its Potency is inconclusive [inhibitor, single point].

With `O=C(Nc1cccn(Cc2cccc(F)c2)c1=O)NC1CCCCC1` as the molecule, how does the Potency read?
The Potency was inconclusive [inhibitor, single point].

Which “activity change, negative = inhibition” value does the source give for `Brc1ccc(-c2csc(N3CCCCCC3)n2)cc1` here?
Its value is inactive: 44.8%.

Which “activity change, negative = inhibition” value does the source give for `O=C1CCc2ccc(NS(=O)(=O)c3ccc(F)cc3)cc2N1` here?
Its value is inactive: 10.7%.

Which Potency does the source give for `CCCn1c(=N)n(CC(=O)c2ccc([N+](=O)[O-])cc2)c2ccccc21` here?
Its Potency is inconclusive [inhibitor, single point].

Which Potency does the source give for `c1nc(NCC2(N3CCOCC3)CCCCC2)c2ccsc2n1` here?
The Potency was inconclusive [inhibitor, single point].

With `CCS(=O)(=O)N1CCN=C1SCc1cccc(F)c1` as the molecule, how does the “activity change, negative = inhibition” value read?
Its value is inactive: -7.37%.
